In publication PMC6919601, “Identification of Plasmodium dipeptidyl aminopeptidase allosteric inhibitors by high throughput screening” (PLoS ONE, 2019):
Hit rate of the full screen: of about 110,000 compounds, about 230 (0.21%) showed an effect of 50% or more. The list shows a part of the results.

target: DPAP1 (Plasmodium falciparum, UniProt Q8IIJ9); experiment: primary screen, percent inhibition; read by cleavage of a fluorogenic dipeptide substrate; higher = more effect of the substance; set-up: species or system P. falciparum D10 trophozoite lysates; single well
Sequence (Q8IIJ9 whole entry, looked up): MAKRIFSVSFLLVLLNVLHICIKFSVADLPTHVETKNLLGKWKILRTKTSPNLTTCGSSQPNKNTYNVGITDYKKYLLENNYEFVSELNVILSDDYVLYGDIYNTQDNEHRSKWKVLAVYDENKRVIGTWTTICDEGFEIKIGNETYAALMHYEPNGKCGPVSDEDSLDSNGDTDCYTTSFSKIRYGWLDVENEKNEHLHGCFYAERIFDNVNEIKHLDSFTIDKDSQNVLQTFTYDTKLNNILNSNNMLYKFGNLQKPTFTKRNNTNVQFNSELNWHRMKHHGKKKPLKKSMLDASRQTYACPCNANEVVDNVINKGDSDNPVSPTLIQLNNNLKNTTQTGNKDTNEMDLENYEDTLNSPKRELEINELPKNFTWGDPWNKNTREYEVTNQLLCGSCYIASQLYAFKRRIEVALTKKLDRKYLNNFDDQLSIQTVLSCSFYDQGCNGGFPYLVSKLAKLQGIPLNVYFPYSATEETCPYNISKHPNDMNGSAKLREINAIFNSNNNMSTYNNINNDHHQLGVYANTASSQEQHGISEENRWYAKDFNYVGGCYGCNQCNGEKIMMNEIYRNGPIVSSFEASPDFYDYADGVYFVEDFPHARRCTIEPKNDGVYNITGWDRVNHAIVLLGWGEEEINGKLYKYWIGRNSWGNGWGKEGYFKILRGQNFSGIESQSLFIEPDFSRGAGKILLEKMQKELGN
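Further: 30 min substrate incubation versus DMSO and 10 µM JCP410 controls.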

Compound	% Inhibition @ 10 uM [%]
Cc1ccc(CNC(=O)CCS(=O)(=O)Cc2ccc(C)cc2)cc1	-1.21
Cc1cc(-n2nc(C)cc2C)nc(-c2ccccc2O)n1	-0.736
COc1cc2c(cc1C)/C(=N/OC(=O)c1cc(OC)c(OC)c(OC)c1)CCC2	3.16
CCOc1cccc(C(=O)Nc2ccc(-c3nc4ccccc4[nH]3)cc2)c1	4.44
O=C(NCCc1ccc(Cl)cc1)C12CC3CC(CC(C3)C1)C2	1.76
Cc1cccc(C(=N)NOC(=O)c2ccc3c(c2)OCO3)c1	-9.83
CC(C)=Cc1ccc2c(N)c(C#N)sc2n1	-1.96
COc1ccccc1Nc1nc(N)nc(CSc2nccn2C)n1	3.92
COc1ccc2sc(N(CCN(C)C)C(=O)c3ccc4ncsc4c3)nc2c1	-1.41
COc1ccc(C2CC(O)=C/C(=N/c3ccc(Cl)cc3)C2)cc1 (stereo not drawn)	3.19
CCCn1c(C)c(C(=O)OCc2ccccc2)c2cc(O)ccc21	-3.13
c1ccc(CCCN2CCN(c3ccccc3)CC2)cc1	1.26
CC1CCN(c2ncnc3ccccc23)CC1	-3.01
Cc1ccc(C(=O)Nc2sc(C)c(C)c2C(=O)OC(C)C)o1	1.64
N#CCNC(=O)[C@H](Cc1cc(I)c(O)c(I)c1)NC(=O)c1ccc(OC(F)(F)F)cc1	-3.04
N#CC1=C(N)C2=CCCC[C@H]2[C@H](c2cccnc2)C1(C#N)C#N	19.6
COC(=O)C1=C(C)N(CCc2ccc(OC)c(OC)c2)C(=O)C1	6.89
CC1CN(Cc2ccc(F)c(Br)c2)CC(C)O1 (stereo not drawn)	1.87
CC(=O)c1ccc(N2CCN(Cc3ccccc3C)CC2)cc1	1.87
CCC1CCCCN1C(=O)CSc1nnc(-c2ccccc2)o1 (stereo not drawn)	-0.999
CCCNC(=O)CCCN1C(=O)c2ccccc2Sc2ncccc21	6.66
CCOC(=O)C1CCCCN1Cc1cc(Br)cs1 (stereo not drawn)	4.04

Compound	% Inhibition @ 10 uM [%]
COc1ccc(CCNc2nc3c(c(=O)[nH]c(=O)n3C)n2CCC#N)cc1OC	-1.76
COc1ccc(C(NC(=O)C(C)C)c2ccc3cccnc3c2O)cc1OC (stereo not drawn)	-3.23
Cc1cccc(N2C(=O)c3ccc(C(=O)O)cc3C2=O)c1C	0.843
CCOc1ccc(N(CC(=O)OC)S(=O)(=O)c2ccccc2)cc1	-0.216
COc1ccc2nc(NC(=O)Cn3nc(C)n4cccc4c3=O)sc2c1	-4.43
Cc1nn(CC(=O)NCCc2ccc(Cl)cc2)c(=O)c2cccn12	-6.99
CCCn1c(SCC(O)c2ccc(OC)cc2)nc2ccccc21 (stereo not drawn)	3.66
Cc1cc(C(=O)N2C(C)COCC2C)c(C)o1 (stereo not drawn)	-1.91
CCCNC(=O)c1cc2sc(Cl)cc2n1CC	-3.08
CC(C)NS(=O)(=O)c1ccc(OCC(=O)NCCO)cc1	-1.41
CN1C(=O)c2ccccc2C(C(=O)NCCN2CCc3ccccc3C2)C1c1cn(C)c2ccccc12 (stereo not drawn)	-7.27
Cc1nc2c(C(=O)NCc3ccc4c(c3)OCO4)cnn2c(C)c1Cc1ccc(F)cc1Cl	1.27
CC(C)CCCC(C)NC(=O)c1ccc(Br)o1 (stereo not drawn)	0.214
COc1ccc(CN(Cc2ccccc2)S(=O)(=O)c2ccc(-n3cnnn3)c(C)c2)cc1	2.08
COCCCn1c2c(c(=O)[nH]c1=O)C(c1ccc(C)cc1)C1=C(O)c3ccccc3C1=N2 (stereo not drawn)	-2.75
CCCOc1ccc(C(=O)CCNC(C(=O)O)C(C)C)cc1 (stereo not drawn)	2.8
Cn1nnnc1SCCCNCc1ccc(OCc2ccccc2Cl)cc1	-1.11
O=c1c2c3c(sc2[nH]c(=S)n1C1CCCCC1)CCCC3	9.26
O=C(CN1C(=O)c2ccccc2C1=O)N1CCN(C(c2ccccc2)c2ccc(Cl)cc2)CC1 (stereo not drawn)	-0.357
Cc1coc2c1c(C)cc1oc(=O)c(CC(=O)NCc3ccc(F)cc3)c(C)c12	-0.808
Cc1scc(CN2CCC3(CC2)OCCO3)c1C	-6.05
O=C(Nc1ccc(CN2CCCCC2)cc1)c1cc2nc(C(F)F)cc(C(F)F)n2n1	5.61

Compound	% Inhibition @ 10 uM [%]
CCn1c(C(=O)N2CCC(C(=O)NCCc3c[nH]c4ccccc34)CC2)cc2sccc21	3.4
CCCCOc1ccc(C(C)(CC(=O)O)C(=O)O)cc1 (stereo not drawn)	-1.68
COc1ccc(-c2nc(N)n(S(=O)(=O)c3ccc(Cl)cc3)n2)cc1	-5.29
CN1CCCC1CCNS(=O)(=O)c1ccc(Br)cc1 (stereo not drawn)	-0.48
CCCc1[nH]nc2c1C(c1ccc3c(c1)OCO3)C(C#N)=C(N)O2 (stereo not drawn)	2.36
COC(=O)c1sccc1NC(=O)c1sc2nc3n(c(=O)c2c1C)CCCCC3	3.44
CCn1ncc(Cl)c1C(=O)Nc1cc2oc3ccccc3c2cc1OC	-1.37
COc1ccc(CN2CC(C)OC(C)C2)cc1 (stereo not drawn)	-1.22
Cc1nc2sccn2c(=O)c1S(=O)(=O)NCc1ccncc1	3
CCCNC(=O)c1ccc2nc(N3CCCCC3)sc2c1	-0.85
CCOC(=O)N1CCN(c2c(NCc3cccnc3)c(=O)c2=O)CC1	5.09
CCOc1ccc(CCN2CN(CC)CNC2=S)cc1OCC	1.32
O=C(/C=C/c1ccccc1)Nc1ccccc1C(=O)O	-0.415
CCCN(CCC)C(=O)c1cnn(-c2ccc(F)cc2)c1-n1cccc1	-5.18
COc1ccccc1Oc1coc2cc(O)ccc2c1=O	-2.91
COc1cc(C(c2c(C)n(C)n(-c3ccccc3)c2=O)c2c(C)n(C)n(-c3ccccc3)c2=O)ccc1O	-1.05
O=C(CCCn1sc2ccccc2c1=O)NCCC1=CCCCC1	-2.84
CCCCCCOc1ccc(N2C(=O)CC(N3CCOCC3)C2=O)cc1 (stereo not drawn)	2.08
CCCN(Cc1cc2cccc(C)c2nc1O)S(C)(=O)=O	5.7
Cc1cccc(CCNC(=O)c2sc3nc4n(c(=O)c3c2C)CCCCC4)c1	-0.788
CCOc1ccc(C(=O)Nc2cccc3cccnc23)cc1	1.61
Cc1nn(-c2ccccc2)c2c1C(c1ccc(OCc3ccccc3)cc1)SCC(=O)N2 (stereo not drawn)	-3.63
